Data taken from the supplement of paper PMC11417369.
± gives the standard deviation of the averaged measurements. The list shows a part of the results.

Each sequence was assayed on PfAP2-LT AP2 domain (GST-tagged) (assay: gcPBM binding intensity (ln(normalized median fluorescence intensity)); higher = stronger DNA binding).
Method in brief: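 For binding intensity, the highest Masliner-normalised natural-log median intensity across replicate spots of either probe orientation was taken. Protein bound to the array was stained with Alexa488 anti-GST antibody and scanned at 488 nm. The protein, GST-tagged P. falciparum DNA-binding domains from E. coli at about 25 μg on average, had been applied for 1 h to an Agilent 4 × 180k array of primer-extended double-stranded 36-bp intergenic genomic probes and negative controls.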

Sequence	gcPBM binding intensity (ln)
AATATAAATAATAGTAGTACATATATATCTCAGAAA [XGTACX_site4055]	8.84 ± 0.5
TAAATAAATTTATACACACACACACCCATATATATA [CACACA_site849]	10.04 ± 0.035
AAAAAATCAAAACACACACACACACTAGAAAAAAAA [CACACA_site4909]	10.1 ± 0.49
TTATGTTGTAAATGCACACATACATATACGCAGTTT [CACACA_site3015]	9.02 ± 0.33
CAATTTTACTCATAAACACACATATAGATGTTATTA [CACACA_site7474]	8.78 ± 0.38
TATATATATATATGATGTACATGAAAATTTCCAAAA [XGTACX_site5472]	8.78 ± 0.47
TATATTTTTTAATTCACACAAAAATGAAAAATATTT [CACACA_site6001]	8.28 ± 0.38
ATATCTGAAGTGTAAAGTACATATATATATTCATAT [XGTACX_site4612]	8.85 ± 0.35
ATATATATATAATGTAGTACTATTTAATAATAAGCC [XGTACX_site1263]	9.22 ± 0.4
ACCATATGTACATTTTTTTTTTTTTTTTTTTTTTTT [CACACA_negctrl_site1188]	9.05 ± 0.15
ACATTCAAGCGTAATTGTACATACATATATATATAT [XGTACX_site8876]	9.55 ± 0.3
TATTGTATCCTTAATGCATGCACCAAATAAAAAAAG [TGCATGCA_site541]	8.69 ± 0.28
ATGTATATAAATAGTAGTACATTATTTCACACTGTA [XGTACX_site2061]	8.88 ± 0.38
AAAAAAAAAAAAAAAGCACACACCAATGAGCAGCTT [CACACA_site1845]	9.1 ± 0.2
CACACCCACAGACACACACACACATATATAATATAT [CACACA_site594]	10.2 ± 0.54
TATAATCATATACACGCATGTATAAAATTTAATACT [TGCATGCA_site700]	8.96 ± 0.35
TAATATATGTATTATGCATGTGAATAAGCACTTGAT [TGCATGCA_site848]	8.74 ± 0.31
ATATGTTACAAAGATTGTACTTATTAAGGAGCGACT [XGTACX_site5094]	8.85 ± 0.36
TGTAAACATAAGATATGTACTTATATCATATTATAA [XGTACX_site6883]	8.59 ± 0.59
ATGACAATTCAAAATTGTACATAAAAAAAAAAAAAA [XGTACX_site7560]	8.45 ± 0.48

Sequence	gcPBM binding intensity (ln)
AAATAAAAATAAAATAAAATAAAATTAAATGGGAAT [GTGCAC_negctrl_site349]	8.79 ± 0.42
GTTTTATATTATATATGTACATATCCATGAGATATA [XGTACX_site3328]	8.91 ± 0.4
TTTAACTTTTATATAACACACATATTGTAATTATGT [CACACA_site6486]	9.12 ± 0.32
TTCATATGTTTTAACACACACGCATATATTATATAT [CACACA_site2007]	9.22 ± 0.39
AAAAAAATTTGGCATACACACACACCCCCACCCACA [CACACA_site8094]	10.41 ± 0.05
AAAAAACATTTTCGAGTGCATGTTTTGCTTTATTTC	8.85 ± 0.35
AATAATTTGGTCTTATCAAAAATTAAAAATAAATAA [XGTACX_negctrl_site430]	8.32 ± 0.4
TTAAATGTTAAAAGGGTGCTATTATATAAATGAAAA [GTGCAC_site9882]	8.46 ± 0.45
AAAAATTACCCTTGTGTACACATATATTATCTGTAT [CACACA_site4513]	9.14 ± 0.46
AACATATTGGATTTAGTGCACATATATATCATAATA	8.8 ± 0.47
TCTTATAAACATGTATATATTAAAAAAAAAAAAAAA [TGCATGCA_negctrl_site86]	8.29 ± 0.45
TATAAGCTTTCAATGTGTACATATTATTTTATTATT [XGTACX_site3988]	8.94 ± 0.4
TAATAATAATTAAATTGTACATATAATATAATATAA [XGTACX_site8554]	8.49 ± 0.45
AATAAAGTAATAACTACACACATTTATAAAAAAGTA [CACACA_site3753]	9.01 ± 0.53
ATATTATCATATTCGAGTACACGAAGTATTATTGCA [XGTACX_site6765]	8.89 ± 0.31
TAAAAATTACTATATGAACACACATGATTAGATATA [CACACA_site9012]	8.71 ± 0.41
AGGTGATTAATATATACACACATACATATATATATA [CACACA_site8913]	9.36 ± 0.3
AACCATAAAAAGTGTACACATATAAAAAATATGGAA [CACACA_site4199]	9.21 ± 0.53
TATATAAATTAACCAGTGCATTATTTGGAAATTATT	8.63 ± 0.42
TATGCTTTTACAATGTGTACTTATATTTTTCACAGG [XGTACX_site6201]	9.02 ± 0.43

Sequence	gcPBM binding intensity (ln)
ATATATCATCATGTATGTACACACATACATATATTA [XGTACX_site2814]	9.21 ± 0.29
TAATTTTCAATAATTTGTACATAATTTTTATAAATT [XGTACX_site8133]	8.31 ± 0.59
ACAAGAGAAAAAAATACACACAAGATAAAAATGTAT [CACACA_site607]	9.21 ± 0.46
TAAAAAAATTTTACAAGTACAAAAAAATGTAATAAA [XGTACX_site4829]	8.68 ± 0.6
ATATATATAGATCGAAGTACAGATAGAATGAAAATA [XGTACX_site2695]	9.14 ± 0.28
ATATATAAATATATTTGTACATATAATATGTATTAT [XGTACX_site8820]	8.83 ± 0.38
CTAGGTATGCTTTAAACATGCAAAAATACAAATTAC [TGCATGCA_site239]	8.91 ± 0.49
AAATATTATAAAAAGGTGCATTTTTATTATATGAGT	8.64 ± 0.4
TTTTGTTATAATAAAGTGCATTTAGTCGGGTTACAA [GTGCAC_site9779]	8.5 ± 0.42
ATATATGTTTTTATATGTACTTATAATGTGTGTATA [XGTACX_site5165]	9.26 ± 0.36
AATTTAAAAAAAATCACACACAGAAAAAAAAAAAAA [CACACA_site2322]	8.96 ± 0.52
AAGGAAAACAATAGGTGTACCAAACGTCCTAGGAAC [XGTACX_site5732]	9.26 ± 0.57
TTTCTTCATTTTTTCACACATAAGAAAATATAATCA [CACACA_site4275]	8.38 ± 0.4
AAAAAAGCAATATGATGTACATTTACTTTGTGAAAG [XGTACX_site4450]	8.73 ± 0.46
TAAAAAAATAAAATTACACACATATATAAATATATA [CACACA_site2620]	8.68 ± 0.4
TATATCCACATTTTTAGTACTTAAAAATAAATAAAC [XGTACX_site3826]	8.49 ± 0.38
TTCTGACCAATGCTATAAAATAATACAAAAGAAAAA [GTGCAC_negctrl_site3]	8.46 ± 0.45
TGAAGAGGAAACAAACAAAATGAATAATTAAAAAGG [CACACA_negctrl_site1601]	8.79 ± 0.59
